{"source": "PubChem BioAssay AID1845199", "about": "(Molecular Pharmacology Branch, DTP, NCI, 2023)", "test_system": "556581-035-R-J1 tumor spheroid viability, % test/control", "assay": "Anticancer human tumor 556581-035-R-J1 patient-derived ovarian carcinoma cell line growth inhibition", "conditions": "stronger effect = lower value, spheroids with HUVEC and MSC", "source_text": "Multicellular complex tumor spheroid response to DNA repair inhibitors in combination with DNA-damaging drugs\nThis study explores the anticancer activities of DNA-damaging drugs and inhibitors of DNA damage repair, both as single agents and in combinations. Complex tumor spheroids comprised of malignant cells, endothelial cells and mesenchymal stem cells served as an in vitro model for human solid tumors. This model system incorporates physiologically relevant features and patient-derived or established malignant cell lines with clinically relevant genetic alterations from many tumor types. Twenty-six patient-derived or established malignant cell lines were evaluated representing sarcoma, melanoma, small cell lung cancer (SCLC), non-small cell lung cancer (NSCLC), as well as bladder, ovarian and pancreatic cancers. The concentration ranges selected for each drug and investigational agent were based upon clinically achievable concentrations if the clinical Cmax of the agent was known.\nCompounds. The drugs and compounds olaparib (NSC753686), talazoparib (NSC767125), berzosertib (NSC777718), elimusertib (NSC800525), nedisertib (NSC802822), VX-984 (NSC792969), AZD-1390 (NSC803789), temozolomide (NSC362856), topotecan (NSC609699), trabectedin (NSC813783), staurosporine (NSC755774), and gemcitabine (NSC613327) were obtained from the National Cancer Institute (NCI) Developmental Therapeutics Program Chemical Repository. The FDA-approved anticancer drug set is available from the Developmental Therapeutics Program at https://dtp.cancer.gov/organization/dscb/obtaining/available_plates.htm. […] The stock solutions were prepared in dimethyl sulfoxide (DMSO, Sigma-Aldrich, St. Louis, MO, cat. D2650) at 400-fold the tested concentration and stored at -70 degrees C. Prior to their use, the stock solutions were diluted in fresh medium and the final DMSO concentration in the assay was 0.25% (v/v). All drugs and investigational agents were tested over a range starting from a high concentration at or near the clinical Cmax and decreasing in half-log increments. If the clinical Cmax for an agent had not been determined, the highest concentration tested was 10 microM.\nCell Lines. The patient-derived cancer cell (PDC) lines: 156681-154-R-J1-PDC, 283228-195-R-J1-PDC, 287954-098-R-J1-PDC, 292921-168-R-J2-PDC, 349418-098-R-PDC, 425362-245-T-J1-PDC, 556581-035-R-J1-PDC, and BL0293-F563-PDC were received from the NCI Patient-Derived Models Repository (PDMR, https://pdmr.cancer.gov). The established cell lines HS-SY-2 (RRID:CVCL_8719), MPNST, and SYO-1 (RRID:CVCL_7146) were obtained from the Sloan Kettering Institute. The alveolar soft parts sarcoma cell line ASPS-1 (RRID:CVCL_S738) was established at the NCI and grown from internal seed stocks. […]", "note": "Some entries of the source have several records that differ or are many. The other results are left out here. There may be further records. Values given together repeat one measurement across runs, samples, wells, individuals or studies. Marks such as (2×) stand for listed records that agree.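 Note: spheroids exposed to compounds for 7 days before viability read.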"}
{"smiles": "CC[C@@]1(O)C(=O)OCc2c1cc1n(c2=O)Cc2cc3c(CN(C)C)c(O)ccc3nc2-1", "values": [{"measurement": "viability, T/C", "setting": "compound alone 0.00949 µM", "value": "95.1, 103, 87.7, 76, 83.9, 90.9, 86.8, 90.7, 93.5, 84.8%"}]}
{"smiles": "Cn1nnc2c(C(N)=O)ncn2c1=O", "values": [{"measurement": "viability, T/C", "setting": "compound alone 3.16 µM", "value": "98, 94.7, 101 (2×), 117, 110, 104, 103, 106, 90.7%"}, {"measurement": "viability, T/C", "setting": "compound alone 100 µM", "value": "92.2, 104, 107, 94.2, 110 (2×), 106, 96.7, 130, 105%"}]}
{"smiles": "COc1cc2c(cc1O)CCNC21CSC2c3c(OC(C)=O)c(C)c4c(c3C(COC1=O)N1C(O)C3Cc5cc(C)c(OC)c(O)c5C(C21)N3C)OCO4", "note": "(centres undefined)", "values": [{"measurement": "viability, T/C", "setting": "compound 30 pM", "value": "98.7, 113, 106, 102, 68.3, 103, 107, 105, 99.4, 97.4%"}]}
